Each structure is given as a SMILES string. Out of some 52,000 compounds screened, about 4,300 (8.3%) were called active. No stated cut-off is given here; in the data, active means survival mostly below about 52% (no sharp cut-off); inactive means mostly above about 56%. This is one part of the list.

The experiment has as its system DeltatarO mutant. The experiment can be described thus: growth inhibition of S. aureus wild type versus tarO mutant, primary screen, teichoic acid synthesis inhibitors, RN4220, OD600 (AID 463173). The following applies: OD600, 18 h, stronger effect = lower value, screened at 18.75 µg/mL (by protocol).
On to `Cc1ccc(CCNC(=O)Cn2nc(-c3ccc(C)cc3)ccc2=O)cc1`, for which the survival was active: 0%.

Consider `COc1ccc(OCC(=O)OCc2cc(=O)n3nc(C4CCCCC4)sc3n2)cc1`, for which the survival was inactive: 89%.

With `CC(=O)Nc1cccc(NC(=O)C(=O)NCCc2sc(-c3ccccc3)nc2C)c1`, the survival is inactive: 70%.

In the case of `COc1ccc(N2CCN(C(=O)c3cn(CC(C)C)c(=O)c4c3c3ccccc3n4C)CC2)cc1`, the survival is inactive: 65%.

As for `CCc1ccc(-c2nn(CC(=O)Nc3ccccc3)c3c2cnc2ccc(F)cc23)cc1`, the survival was inactive: 75%.

Consider `O=C(Cn1c(=O)c2cccn2c2ccccc21)Nc1cc(F)ccc1F`, for which the survival was inactive: 44%.

On to `CCOC(=O)c1cc(-c2ccccc2)n(-c2cccc(C(=O)Nc3ccc(OC)cc3)c2)c1C`, for which the survival was inactive: 83%.

For `CCOc1ccc(N(C(=O)Cn2nnc3ccccc32)C(C(=O)NCc2ccccc2)c2ccc(OC)cc2)cc1` (stereo not given), the survival is inactive: 52%.

For the molecule `CCc1ccc(CNC(=O)c2ccc(NC(=O)N3CCCCc4ccccc43)cc2)cc1`, the survival was inactive: 83%.

Turning to `COc1ccc(Cn2c(SCc3ccc(C(=O)NC(C)C)cc3)nc3cccnc32)cc1`, the survival was inactive: 98%.

As to `COc1ccccc1NC(=O)c1cccc(S(=O)(=O)N2CCCCCC2)c1`, the survival is active: 40%.

On to `Cc1c(Cl)cccc1NC(=O)Nc1nnc(N2CCCCCC2)s1`, for which the survival is inactive: 84%.

Turning to `O=c1ccnc(NCCc2ccccc2)[nH]1`, the survival was inactive: 104%.

Turning to `Cc1ccc(C(=O)Nc2cccc(C(=O)O)c2)cc1S(=O)(=O)N1CCCC1`, the survival is inactive: 81%.

Turning to `O=C(Cn1ncc2ccc(Cl)cc21)NCc1ccc(F)cc1`, the survival is inactive: 104%.

For `CSc1cccc(Nc2nc3c(S(=O)(=O)c4ccccc4)nnn3c3ccc(Cl)cc23)c1`, the survival is inactive: 75%.

For the molecule `Cc1ccc(C)c(NC(=O)CSc2ncc(S(=O)(=O)c3ccc(C)c(Cl)c3)c(=O)[nH]2)c1`, the survival is inactive: 66%.

`O=C(c1ccc2c(c1)N(Cc1ccc(F)cc1)C(=O)c1ccccc1S2=O)N1CCC(Cc2ccccc2)CC1` (stereo not given): the survival was inactive: 84%.

With `O=C(Cn1c(=O)nc(-c2ccccc2F)c2cc(Cl)ccc21)N1CCN(c2ccccc2F)CC1`, the survival is inactive: 99%.

Take `CCCCC(CC)CNC(=O)CN1C(=O)CSc2ccc(S(=O)(=O)N3CCOCC3)cc21` (stereo not given): the survival is inactive: 84%.

Consider `CCOc1ccccc1N(CC)C(=O)c1cc2c(=O)[nH]c3ccc(C)cc3c2s1`, for which the survival is inactive: 74%.

`COc1ccc(CNC(=O)c2c3c(nc4ccccc24)C(=O)N(C2CCCCC2)C3)c(OC)c1`: the survival was active: 32%.

`COC(=O)c1scc(-c2ccc(C)cc2)c1S(=O)(=O)Nc1cc(OC)c(OC)c(OC)c1`: the survival was inactive: 96%.

Consider `C=C(C)CSc1nc2sc3c(c2c(=O)n1-c1ccccc1)CC(C(C)C)OC3` (stereo not given), for which the survival is inactive: 76%.

With `CCC1CN(C(=O)N2CCC(C(=O)NCc3cccc(C)c3)CC2)c2ccccc2O1` (stereo not given), the survival was inactive: 77%.

Turning to `NC(=O)CSc1nc2cc(Cl)ccc2s1`, the survival is inactive: 100%.

Take `COc1ccc(CNC(=O)C(=O)Nc2ccc(OC)cc2OC)cc1`: the survival is inactive: 67%.

`O=C(O)C1C2C=CC(C2)C1C(=O)NCc1cccs1` (stereo not given): the survival is inactive: 83%.

Take `CCOC(=O)c1cnc2c(C)c(Cl)ccc2c1NCCc1ccccc1`: the survival is active: -3%.

For the molecule `Clc1cccc(-n2ncc3c(N4CCCCC4)ncnc32)c1`, the survival was inactive: 118%.

For `O=C(Cn1cc(S(=O)(=O)Cc2cccc(Cl)c2)c2ccccc21)NCCc1ccccc1`, the survival is inactive: 74%.

For `Cc1ccc(NC(=O)/C(C#N)=C/c2ccc(C(C)C)cc2)cc1C`, the survival is inactive: 81%.

For the molecule `CCN(c1cccc(C)c1)S(=O)(=O)c1ccc2[nH]cc(C(=O)NCCCOC)c(=O)c2c1`, the survival was inactive: 67%.

For `CC(=O)Nc1nonc1-c1nnc(SCC(=O)N(C)c2ccccc2)n1C`, the survival is inactive: 48%.

Turning to `COc1cc2c3c(c1OC)C1(C=CC(=NNC(N)=O)C=C1)CC3N(C(C)=O)CC2` (stereo not given), the survival was inactive: 79%.

`COc1cccc(C(=O)NC2CCSC2=O)c1` (stereo not given): the survival is inactive: 75%.

Turning to `O=C(NCCc1ccccc1)c1cnc2sc(N3CCCC3)nn2c1=O`, the survival is inactive: 85%.

`CCN1CCN(CCCNC(=O)c2cc3c(=O)n(C)c4ccccc4c3s2)CC1`: the survival was inactive: 79%.

With `Cc1cccc(OCCn2c(-c3ccc(Cl)cc3)nc3ccccc3c2=O)c1`, the survival is inactive: 105%.

Regarding `CCCc1nn2c(=O)cc(COC(=O)c3cccc(NC(=O)COc4ccccc4C)c3)nc2s1`, the survival was inactive: 83%.

On to `O=C(c1cc(-c2ccccc2)on1)N1CCCc2ccccc21`, for which the survival is inactive: 86%.

As to `CCc1ccccc1NC(=O)Cn1c(=O)n(Cc2ccc3c(c2)OCO3)c(=O)c2ccc(C(=O)NC3CCCCC3)cc21`, the survival was inactive: 119%.

Turning to `Cc1ccccc1-c1nc(CS(=O)(=O)CC(=O)NCC(C)c2ccccc2)c(C)o1` (stereo not given), the survival is inactive: 48%.

`COc1cc(OC)c(NC(=O)C2CCCN(c3ncnc4c3nc3n4CCCCC3)C2)cc1Cl` (stereo not given): the survival was inactive: 122%.

As for `O=C(COc1ccccc1Cl)NCC1(N2CCOCC2)CCCCC1`, the survival is inactive: 106%.

Regarding `CCc1ccc(OCC(=O)Nc2cc3oc4ccccc4c3cc2OC)cc1`, the survival was active: 47%.

In the case of `CCOC(=O)c1ccc(Nc2c(-c3ccc(O)c(OC)c3)nc3nc[nH]n23)cc1`, the survival was inactive: 93%.

Regarding `CC(C)(C)OC(=O)N1CC=C2C(C1)C(c1cccc(F)c1)C(C#N)=C(N)C2(C#N)C#N` (stereo not given), the survival was inactive: 79%.

Consider `CC1Cc2cc(S(=O)(=O)N3CCN(c4ccccc4F)CC3)ccc2N1C(=O)C1CCC1` (stereo not given), for which the survival was inactive: 95%.

On to `Cc1cc(F)ccc1S(=O)(=O)NCC(c1ccco1)S(=O)(=O)c1cccs1` (stereo not given), for which the survival is inactive: 118%.

As to `CC1CCCC(C)N1C(=O)CN1CCC(O)(c2ccccc2)CC1` (stereo not given), the survival is inactive: 104%.

On to `Cc1cc2nnc(SCC(=O)Nc3ccc(F)c(Cl)c3)n2c2ccccc12`, for which the survival was inactive: 82%.

`COc1cc(NS(=O)(=O)c2ccc3c(c2)CCN3S(C)(=O)=O)cc(OC)c1`: the survival was inactive: 102%.

With `CCCCOc1ccc(C(=O)N2CCN(CCc3ccncc3)CC2)cc1`, the survival was inactive: 105%.

Regarding `COC(=O)C1=C(CS(=O)(=O)c2cc(Cl)ccc2OC)NC(=O)NC1c1ccccc1` (stereo not given), the survival was inactive: 78%.

In the case of `Cc1ccc(-c2nc3ccccc3[nH]2)cc1NC(=O)C(C)C`, the survival is inactive: 70%.

On to `CC(=O)c1c(C)nc2nc(-c3ccccc3)nn2c1C`, for which the survival is inactive: 68%.

As to `COCCCNC(=O)c1oc2c(c1C)-c1nn(Cc3cccc(Cl)c3)cc1CC2`, the survival is inactive: 72%.

In the case of `COc1ccccc1N1CCN(C(=O)c2nn(-c3ccc(C)cc3)c(=O)n(C)c2=O)CC1`, the survival is inactive: 75%.

On to `Cc1cccc(NC(=O)c2ccc(N(Cc3ccccc3)S(C)(=O)=O)cc2)c1`, for which the survival is active: 48%.

`CCN(CCCNC(=O)c1cc2c(=O)n(C)c3ccccc3c2s1)Cc1ccccc1`: the survival is inactive: 94%.

Regarding `CCN(CC)CCSc1nc2ccc(OC)cc2[nH]1`, the survival was active: 70%.

Consider `Cc1ccc2c(c1)C(c1ccc(F)cc1)N(C(=O)COc1ccc(Cl)cc1Cl)CC(=O)N2` (stereo not given), for which the survival was active: 45%.

In the case of `CC1=Nc2ccccc2N=C(C)C1`, the survival is inactive: 89%.

For `O=C(CSc1c2c(nc3ccc(Cl)cc13)CCCC2)N1CCN(c2cccc(Cl)c2)CC1`, the survival was active: 51%.

With `COc1ccc(CNC(=O)c2cnc3sc(N4CCCC4)nn3c2=O)cc1OC`, the survival is inactive: 71%.

As for `Cc1cc2ncn(CCCCOc3ccccc3)c2cc1C`, the survival is active: -4%.

As for `CCc1nn2c(=O)cc(COC(=O)c3cccc(NC(=O)c4ccccc4Cl)c3)nc2s1`, the survival was inactive: 80%.

Regarding `CCc1ccc2c(c1)c(=O)c(S(=O)(=O)c1ccc(F)cc1)cn2CC(=O)Nc1ccc(C)cc1C`, the survival was inactive: 105%.

With `Cc1ccc(CNC(=O)C2CCCN(S(=O)(=O)c3cccc4nsnc34)C2)cc1` (stereo not given), the survival was inactive: 117%.

In the case of `CCCn1ccc2c(OCC(=O)NCc3ccc(C)cc3)cccc2c1=O`, the survival was inactive: 103%.

As for `CN1C(C(=O)Nc2ccc(F)cc2F)=CC(c2ccco2)=NS1(=O)=O`, the survival was inactive: 86%.

Consider `O=C(CSCc1ccccc1Cl)N1CCN(c2ccc(F)cc2)CC1`, for which the survival was active: 46%.

Take `Cc1nnc(NCc2ccccc2)c2c1nnn2Cc1ccccc1Cl`: the survival is inactive: 92%.

With `Cc1cccn2c(=O)c(C(=O)NCCCN3CCCCC3C)c(O)nc12` (stereo not given), the survival was inactive: 95%.

Take `Cc1cccc(C)c1NC(=O)c1oc2ccc3c(c2c1C)C(=O)CC(C)(C)O3`: the survival was active: 42%.

`COc1ccccc1CNC(=O)C1CCCN(S(=O)(=O)c2ccc3c(c2)CCCN3C(C)=O)C1` (stereo not given): the survival is active: 52%.

For the molecule `O=C(Cn1ncc2c1-c1ccccc1OC2)N1CCN(c2ccccc2F)CC1`, the survival was inactive: 64%.

Regarding `CN1c2ccccc2Sc2cc(C=C(C#N)C#N)ccc21`, the survival was inactive: 108%.

As to `CCOC(=O)/C(C#N)=C/c1cc(Br)cs1`, the survival is inactive: 84%.

`CCOC(=O)c1cccc(NC(=O)CN2C(=O)c3ccccc3Sc3ncccc32)c1`: the survival is inactive: 100%.

Take `COc1cc(-c2nnn(CC(=O)Nc3ccc(OC(F)(F)F)cc3)n2)cc(OC)c1OC`: the survival was inactive: 67%.

As for `CCOC(=O)c1c(C)[nH]c(CCC(=O)Nc2cc(C)ccc2OC)c1C`, the survival is inactive: 78%.

On to `CC1CCC(NC(=O)c2ccc3c(c2)N(Cc2ccccc2)C(=O)c2ccccc2S3=O)CC1` (stereo not given), for which the survival was inactive: 104%.

As to `Cc1ccc(C(=O)NCc2ccc(N(C)C)cc2)cc1NC(=O)c1nsc2ccccc12`, the survival is inactive: 117%.

`COc1cc(NC(=O)CC2C(=O)N(c3ccc(Cl)cc3)C(=O)N2Cc2cccs2)cc(OC)c1` (stereo not given): the survival was inactive: 85%.

With `CCOC(=O)Cn1c(=O)n(CC2CCCO2)c2nc(-c3ccc(C(C)C)cc3)nc(C(N)=O)c21` (stereo not given), the survival is active: 6%.

As to `O=C(Nc1nnc(S(=O)(=O)Nc2ccccc2)s1)C1CCCCC1`, the survival was active: 31%.

As to `COc1cc2c(-c3cc(Br)ccc3O)nc3c(c(C)nn3-c3ccccc3)c2cc1OC`, the survival is inactive: 77%.

For `Cc1ccccc1N(C)S(=O)(=O)c1nnc(NC(=O)C(C)C)s1`, the survival is inactive: 69%.
